Results as given in the supplement of paper PMC12578646, “Prodrug florfenicol amine is activated by intrinsic resistance to target Mycobacterium abscessus” (Nature Microbiology, 2025).

Legend:
[1] = tested on: Mycobacterium abscessus ATCC 19977 WhiB7 R76del; assay: growth relative to untreated wells; higher = more growth (less inhibition)
Experimental: (§1)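 384-well two-fold dose series, two replicates; 5 days at 37 °C, then 24 h with resazurin; fluorescence scaled to growth and killed controls.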

[2] = tested on: Mycobacterium abscessus ATCC 19977 Eis2 Y255*
Experimental: as §1

[3] = tested on: Mycobacterium abscessus ATCC 19977 WhiB7 R76del
Experimental: as §1

[4] = tested on: Mycobacterium abscessus ATCC 19977 ΔwhiB7
Experimental: as §1

[5] = tested on: Mycobacterium abscessus ATCC 19977 Eis2 Y284*
Experimental: as §1

[6] = tested on: Mycobacterium abscessus ATCC 19977 WhiB7 T70fs
Experimental: as §1

[7] = tested on: Mycobacterium abscessus ATCC 19977 Eis2 T258R
Experimental: as §1

[8] = tested on: Mycobacterium abscessus ATCC 19977 Δeis2
Experimental: as §1

[9] = tested on: Mycobacterium abscessus ATCC 19977 Eis2 Y227D
Experimental: as §1

[10] = tested on: Mycobacterium abscessus ATCC 19977 WhiB7 L37P
Experimental: as §1

[11] = tested on: Mycobacterium abscessus ATCC 19977 Eis2 E120fs
Experimental: as §1

[12] = tested on: Mycobacterium abscessus ATCC 19977 WhiB7 F24fs
Experimental: as §1

[13] = tested on: Mycobacterium abscessus ATCC 19977 WhiB7 A51T
Experimental: as §1

Structure (SMILES) | growth ([1]; 0.00390625 µg/mL) [%] | growth ([1]; 0.0078125 µg/mL) [%] | growth ([1]; 0.015625 µg/mL) [%] | growth ([1]; 0.03125 µg/mL) [%] | growth ([1]; 0.0625 µg/mL) [%] | growth ([1]; 0.125 µg/mL) [%] | growth ([1]; 0.25 µg/mL) [%] | growth ([1]; 0.5 µg/mL) [%] | growth ([1]; 1 µg/mL) [%] | growth ([1]; 2 µg/mL) [%] | growth ([1]; 4 µg/mL) [%] | IC50 [2] [µg/mL] | IC50 [3] [µg/mL] | IC50 [4] [µg/mL] | IC50 [5] [µg/mL] | IC50 [6] [µg/mL] | IC50 [7] [µg/mL] | IC50 [8] [µg/mL] | IC50 [9] [µg/mL] | IC50 [10] [µg/mL] | IC50 [11] [µg/mL] | IC50 [12] [µg/mL] | IC50 [13] [µg/mL] | growth ([1]; 8 µg/mL) [%] | growth ([1]; 16 µg/mL) [%] | growth ([1]; 32 µg/mL) [%] | growth ([1]; 64 µg/mL) [%]
CN(C)c1cc(NC(=O)CNC(C)(C)C)c(O)c2c1C[C@H]1C[C@H]3[C@H](N(C)C)C(O)=C(C(N)=O)C(=O)[C@@]3(O)C(O)=C1C2=O [tigecycline] | 98 ± 5 | 102 ± 1.3 | 103 ± 2.5 | 98.1 ± 16 | 105 ± 4.6 | 107 ± 4.1 | 115.1 ± 0.99 | 125.1 ± 0.47 | 18 ± 10 | -4.59 ± 1.3 | -7.59 ± 0.5 | 1.71 (≈ 2.91 µM) | 0.917 (≈ 1.57 µM) | 1.01 (≈ 1.72 µM) | 1.35 (≈ 2.31 µM) | 0.898 (≈ 1.53 µM) | 1.1 (≈ 1.88 µM) | 1.01 (≈ 1.73 µM) | 1.42 (≈ 2.43 µM) | 0.904 (≈ 1.54 µM) | 1.62 (≈ 2.77 µM) | 0.886 (≈ 1.51 µM) | 0.909 (≈ 1.55 µM) |  |  |  | 
CC[C@H]1OC(=O)[C@H](C)[C@@H](O[C@H]2C[C@@](C)(OC)[C@@H](O)[C@H](C)O2)[C@H](C)[C@@H](O[C@@H]2O[C@H](C)C[C@H](N(C)C)[C@H]2O)[C@](C)(O)C[C@@H](C)CN(C)[C@H](C)[C@@H](O)[C@]1(C)O [azithromycin] |  |  |  | 92 ± 8.7 | 104 ± 2 | 112.3 ± 0.98 | 105 ± 16 | 43.6 ± 30 | 0.889 ± 0.93 | -1.93 ± 0.074 | -3 ± 0.67 | 0.747 (≈ 0.997 µM) | 0.477 (≈ 0.637 µM) | 0.474 (≈ 0.633 µM) | 0.832 (≈ 1.11 µM) | 0.345 (≈ 0.461 µM) | 0.57 (≈ 0.76 µM) | 0.602 (≈ 0.804 µM) | 0.872 (≈ 1.16 µM) | 0.505 (≈ 0.675 µM) | 0.972 (≈ 1.3 µM) | 0.459 (≈ 0.613 µM) | 0.578 (≈ 0.772 µM) | -2.25 ± 1.2 | -2.73 ± 0.58 | -2.08 ± 0.78 | -1.64 ± 0.12

≈ marks a conversion by molar mass, not a printed value. ± gives the standard deviation of the averaged measurements. M. abscessus ATCC 19977 and its deletion, point and complemented mutants after 5 days of drug at 37 °C plus 24 h of resazurin. Growth in % of untreated wells at the dose given (lower = more inhibition); checkerboards give % inhibition (higher = more inhibition); IC50 from the fitted curve (lower = more potent). No active / inactive call. IC50 values come from the same 384-well curves. Growth is not capped and can exceed 100%. The direction of the checkerboard scale is read from the raw signals. Capreomycin is a mixture.
